Results reported in PMC4336329 (PLoS ONE, 2015).
Screen size: about 310,000 compounds; about 2,200 (0.71%) showed an effect of 50% or more. The effect is printed as a negative number. The list shows a part of the results.

Each compound was assayed against human ether-à-go-go-related gene (hERG) potassium channel (human, UniProt Q12809) (assay: primary screen, population patch clamp on CHO cells stably expressing hERG).
Sequence of human ether-à-go-go-related gene (hERG) potassium channel (Q12809 whole entry, looked up): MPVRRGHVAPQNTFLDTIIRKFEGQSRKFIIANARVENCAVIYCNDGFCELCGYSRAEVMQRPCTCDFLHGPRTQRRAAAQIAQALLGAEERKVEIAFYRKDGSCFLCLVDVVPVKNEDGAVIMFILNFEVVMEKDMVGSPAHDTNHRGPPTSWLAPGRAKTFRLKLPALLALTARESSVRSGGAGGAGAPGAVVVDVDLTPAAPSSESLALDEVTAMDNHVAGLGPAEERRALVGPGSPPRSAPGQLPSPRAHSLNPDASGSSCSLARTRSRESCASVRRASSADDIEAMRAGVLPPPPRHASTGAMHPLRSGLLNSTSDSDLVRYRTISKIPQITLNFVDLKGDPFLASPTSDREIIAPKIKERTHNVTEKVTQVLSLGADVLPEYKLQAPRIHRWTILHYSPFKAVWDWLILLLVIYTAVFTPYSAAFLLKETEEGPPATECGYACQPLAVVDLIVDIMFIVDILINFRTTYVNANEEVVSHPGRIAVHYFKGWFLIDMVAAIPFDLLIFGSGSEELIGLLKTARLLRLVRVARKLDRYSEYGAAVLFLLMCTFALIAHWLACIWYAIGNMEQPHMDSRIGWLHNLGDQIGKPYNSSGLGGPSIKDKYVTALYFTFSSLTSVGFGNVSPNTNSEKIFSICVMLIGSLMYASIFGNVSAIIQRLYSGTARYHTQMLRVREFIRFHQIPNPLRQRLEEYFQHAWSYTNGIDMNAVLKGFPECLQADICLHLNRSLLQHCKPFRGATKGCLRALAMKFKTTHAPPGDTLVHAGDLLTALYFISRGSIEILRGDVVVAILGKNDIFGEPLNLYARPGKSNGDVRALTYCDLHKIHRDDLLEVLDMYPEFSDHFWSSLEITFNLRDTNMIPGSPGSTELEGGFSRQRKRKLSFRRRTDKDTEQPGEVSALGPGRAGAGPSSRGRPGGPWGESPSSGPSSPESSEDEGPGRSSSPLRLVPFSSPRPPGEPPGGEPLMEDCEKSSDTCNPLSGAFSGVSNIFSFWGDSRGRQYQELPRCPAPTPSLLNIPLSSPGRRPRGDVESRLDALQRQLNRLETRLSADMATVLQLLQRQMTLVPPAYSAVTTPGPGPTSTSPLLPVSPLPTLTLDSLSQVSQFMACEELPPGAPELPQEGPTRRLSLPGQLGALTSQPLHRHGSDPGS

| SMILES | hERG current change (%, negative = inhibition) at 1uM |
| --- | --- |
| O=C(CCN1C(=O)COc2ccccc21)NCCN1CCN(c2ccccc2F)CC1 | -1.54% |
| C=CCn1c(N)cc(=O)nc1SC(CC)C(=O)Nc1ccc(C(C)=O)cc1 (stereo not shown) | 12.6% |
| CCOc1ccc(NC(=O)C(=O)NCc2ccncc2)cc1 | -3.08% |
| Cc1ccccc1N1CC(C(=O)Nc2nnc(SCCN3CCOCC3)s2)CC1=O (stereo not shown) | 2.12% |
| CCOc1ccccc1C(=O)NCC(=O)OCCCOC(=O)CNC(=O)c1ccccc1OCC | -0.0081% |
| Cc1cc(C)nc(SCC(=O)Nc2ccc3c(c2)OCO3)n1 | 3.75% |
| CC(=O)NS(=O)(=O)c1ccc(NC(=O)c2ccc(S(=O)(=O)N3CCCC3)cc2)cc1 | -2.94% |
| COC(=O)CCN(C(C)=O)c1ccc(N)cc1 | 18.7% |
| CCN(CC)C1CCN(Cc2c(C(=O)N3CCCCCCC3)nc3ccc(Cl)cn23)C1 (stereo not shown) | 10.9% |
| CCOC(=O)C1CCCN(CCC(=O)Nc2ccc(C)c(C)c2)C1.Cl (stereo not shown) | 5.91% |
| O=C1c2ccsc2SCCN1Cc1ccc(F)cc1 | 19.7% |
| C=CCn1c2ccccc2c2nnc(SCc3[nH]c(=O)[nH]c3C(=O)CCCCC(=O)OCC)nc21 | 11.9% |
| COc1ccccc1CN1CCN(C(CC(C)C)c2nnnn2Cc2cccs2)CC1.Cl (stereo not shown) | -24.5% |
| CC1CCCCN1CCNC(=O)c1ccc2c(c1)N(Cc1ccccc1F)C(=O)c1ccccc1S2=O (stereo not shown) | -1.58% |
| CCOC(=O)CSc1nc(-c2cccs2)nc2c1c(=O)n(C)c(=O)n2C | 18.8% |
| O=C(N/N=C/c1cc([N+](=O)[O-])ccc1O)C1CC1 | 14.5% |
| CCCCNS(=O)(=O)c1ccc2nc(SCC(=O)Nc3ccccc3Cl)[nH]c2c1 | 16.3% |
| O=C(Oc1cccc(C(=S)N2CCOCC2)c1)c1ccc([N+](=O)[O-])cc1 | 7.29% |
| Cc1ccc(-c2nc3nc4ccccc4nc3n2Cc2ccco2)cc1 | -3.4% |
| Cc1cc2cc(CNC(=O)c3ccc(Br)o3)ccc2n1C | 14.9% |
| CON(C)c1nc(OCCNC(=O)OCc2ccc(Cl)cc2Cl)nc(N(C)C)n1 | 8.58% |
| CCOc1cc(N2CCOCC2)c(OCC)cc1NC(=O)COC(=O)c1ccc(Cl)cc1N | 1.5% |

| SMILES | hERG current change (%, negative = inhibition) at 1uM |
| --- | --- |
| CC(C)NC(=O)COc1ccc(/C=N/NS(=O)(=O)c2ccccc2)cc1 | 17.5% |
| CCOc1cc2c(cc1OCC)C(c1ccccc1OC)OC(=O)C2 (stereo not shown) | 14.6% |
| O=C(Nc1cccc(S(=O)(=O)N2CCCCC2)c1)c1ccc(N2CCCC2=O)cc1 | 13.5% |
| CCCC[C@@H]1CNC(=S)N1CCCc1cc(OC)c(OC)c(OC)c1 | 18.2% |
| CCCc1oc2c(c(=O)c1CC)C(=O)CC(C)(C)C2 | 14.4% |
| COc1ccc(CNC(=O)c2ccc(NC(=O)CC3SC(N4CCCC4)=NC3=O)cc2)cc1 (stereo not shown) | 9.76% |
| Cc1csc(NC(=O)NC2(C(F)(F)F)Oc3ccccc3O2)n1 | 7.89% |
| CC(C)(C)c1cc(C(=O)N/N=C/c2ccc(O)cc2)n(-c2ccccc2)n1 | 0.356% |
| O=C(NN1C(=O)c2ccc(-c3ccc4c(c3)C(=O)N(NC(=O)c3cccnc3)C4=O)cc2C1=O)c1cccnc1 | 6.87% |
| COc1cc2nc(SCC(=O)c3ccc(Br)cc3)n3nc(C)nc3c2cc1OC | 14.9% |
| Cc1ccc(NC2SC(=O)N(Cc3cccc(C(=O)O)c3)C2=O)cc1 (stereo not shown) | 16% |
| COc1cc(/C=C(\C#N)C(=O)Nc2cccnc2)ccc1OC(C)C | 11.3% |
| Cc1cc(=O)oc2cc(NC(=O)c3c(Cl)cnn3C)ccc12 | 10.7% |
| N/C(=N\OC(=O)C12CC3CC(CC(C3)C1)C2)c1ccncc1 | 11.4% |
| O=C(NCC(=O)N1CCN(c2ccccc2)CC1)c1ccccc1 | 9.42% |
| O=C(COC(=O)c1ccc([N+](=O)[O-])o1)NC1CCS(=O)(=O)C1 (stereo not shown) | 15.2% |
| COCCNC(=O)CN1CCC(n2c(C)nc3cc(C(F)(F)F)ccc32)CC1 | 5.62% |
| CCOC(=O)CC1C(=O)NC2CCCCC2N1C(=O)Nc1ccc(Cl)cc1 (stereo not shown) | -10.6% |
| COC(=O)C1CN(C(=O)COc2cccc(C)c2C)c2ccccc2O1 (stereo not shown) | 17.9% |
| CC12CCC(C(=O)N(c3ccc(Cl)cc3)C1=O)C2(C)C (stereo not shown) | 9.95% |
| Oc1cccc2c3c(oc12)CCCC3 | 15.6% |
| COc1ccccc1N(Cc1ccccc1)S(=O)(=O)c1cccc(C(=O)O)c1 | 10.4% |

| SMILES | hERG current change (%, negative = inhibition) at 1uM |
| --- | --- |
| O=C(NCCC1=CCCCC1)c1ccc(Cl)c([N+](=O)[O-])c1 | 1.16% |
| CC(C)CN(C(=O)COC(=O)c1nc(Cl)ccc1Cl)c1c(N)n(Cc2ccccc2)c(=O)[nH]c1=O | 18.5% |
| CC1=CC(c2ccccc2)=Nc2ccc(C)cc2N1 | 9.69% |
| COc1cccc(C(=O)C2CCCN(Cc3ccc4nonc4c3)C2)c1 (stereo not shown) | -14.6% |
| COc1cc(C#Cc2ccc3cc(C(C)(C)O)oc(=O)c3c2)cc(OC)c1 | 19.3% |
| CCOc1ccc(NC2=C(Cl)C(=O)N(Cc3ccccc3)C2=O)cc1 | -1.77% |
| O=C(NC(CSCc1ccccc1)C(=O)N/N=C/c1ccc(O)cc1O)c1ccc([N+](=O)[O-])cc1 (stereo not shown) | -7% |
| Cc1c(OC(C)C(=O)NCC2CCC(C(=O)O)CC2)ccc2c1oc(=O)c1ccccc12 (stereo not shown) | 14.5% |
| CCOc1cc(C(=S)N2CCOCC2)ccc1OC(=O)c1cccc(C)c1 | 1.58% |
| CCN1C/C(=C/c2ccc(OC)c(O)c2)C(=O)/C(=C/c2ccc(OC)c(O)c2)C1 | 6.85% |
| Nc1nc(F)cc(N2CCCCCC2)n1 | 12.8% |
| COc1ccc(C(=O)Nc2oc(-c3ccccc3)c(-c3ccccc3)c2C#N)cc1 | 9.36% |
| O=c1[nH]c(Nc2ccc(F)cc2)cc2ccccc12 | 6.15% |
| CCn1nc(C)cc1C(=O)N1CCCC(C(=O)c2cccc(OC)c2)C1 (stereo not shown) | 11.6% |
| COc1cc(S(=O)(=O)Nc2ccccc2C)ccc1Cl | 6.03% |
| Cc1ccc(-c2cc(C(=O)Nc3ccc(S(=O)(=O)Nc4cc(C)on4)cc3)c3ccccc3n2)c(C)c1 | -3.02% |
| Cc1ccc(S(=O)(=O)N2C(=O)C(c3ccccc3)SC2=Nc2ccccc2)cc1 (stereo not shown) | 12.3% |
| CCCNC(=O)COC(=O)c1cc(SC)ccc1Cl | 0.961% |
| Cc1cccc(-n2c(SCC(=O)Nc3nonc3C)nnc2-c2ccoc2C)c1 | -81.9% |
| CC1(C)CC(=O)C2=C(C1)N(c1ccccc1)C(=O)C2(O)C(F)(F)F (stereo not shown) | 1.06% |
| Cc1cccc(C)c1NS(=O)(=O)c1c(C)[nH]c(=O)[nH]c1=O | -0.229% |
| CCOC(=O)Cc1csc(NC(=O)CSc2nnc(-c3cccnc3)n2Cc2ccco2)n1 | 0.296% |

| SMILES | hERG current change (%, negative = inhibition) at 1uM |
| --- | --- |
| CCCCCc1c(O)nc(SCCN(C)C)[nH]c1=O.Cl | 8.28% |
| CCOc1ccc(C(=O)N2CCN(Cc3ccccc3)CC2)cc1 | -60.3% |
| O=C(O)COc1ccc(Br)cc1/C=N/O | 10.9% |
| CC(C)=C(NC(=O)c1ccccc1)C(=O)NCCc1nc2ccccc2[nH]1 | 19.8% |
| COc1ccc(CCN(Cc2cccs2)S(=O)(=O)c2ccc(C(=O)O)cc2)cc1OC | 21.6% |
| CCOC(=O)C1(Cc2ccccc2C)CCCN(C(=O)c2ccc(CSC)o2)C1 (stereo not shown) | -0.38% |
| CCCc1cc(=O)[nH]c2nnc(SCC(=O)Nc3ccc4c(c3)OCCO4)n12 | 11.9% |
| Cl.c1coc(CNc2ncnc3ccccc23)c1 | 13.2% |
| CCN(CC)c1ccc(C(=O)N/N=C(\C)c2ccc(O)cc2)cc1 | 16.5% |
| COC(=O)C[C@H]1c2cc(F)ccc2S(=O)(=O)N1c1ccccc1 | 12.2% |
| Cc1c(C)c2ccc(OC(C)C(=O)NCc3ccccn3)cc2oc1=O (stereo not shown) | 11.2% |
| O=C1N=C(N2CCCCC2)S/C1=C/C1=Cc2ccccc2OC1 | 4.65% |
| CCSc1ccc(-c2ccco2)nn1 | 8.6% |
| O=P(O)(CP(=O)(c1ccccc1)c1ccccc1)c1ccccc1O | 16.4% |
| O=C(CCC1CCCC1)Nc1ccc(Br)cn1 | 10.5% |
| COc1ccc2c(c1)CCC/C2=N\NC(=O)c1ccoc1C | 7.69% |
| O=C(NCC(c1ccco1)N1CCN(c2ccc(F)cc2)CC1)C(=O)NC1CC1 (stereo not shown) | -2.57% |
| Cc1cc(C)nc(NC(=O)CSc2nn(C)c(=S)s2)n1 | 7.69% |
| O=C(CSc1nc(O)cc(=O)[nH]1)N1CCOCC1 | 9.24% |
| CCc1ccc(NC(=O)CSc2nc(CSc3ccc(C)cc3)cc(=O)[nH]2)cc1 | 8.53% |
| C=CCC1(CN2CCCCCC2=O)C(=O)NC(=O)NC1=O | 13.8% |
| CCCCN(C(=O)c1ccc([N+](=O)[O-])o1)c1c(N)n(CCCC)c(=O)[nH]c1=O | -3.98% |
